The densities may have been worked out from excess volumes.
Experiment: xn = mol fraction of the nth substance listed

NCCO + CCCC[n+]1ccn(C)c1.F[B-](F)(F)F
101 kPa, x1 = 1
Conditions	mass density [kg/m3]
298.15 K	1013
303.15 K	1009.7
313.15 K	1002.5
333.15 K	986.8
343.15 K	978.6
353.15 K	970.4

O + CCCC[n+]1ccn(C)c1.F[B-](F)(F)F
101 kPa, x1 = 1
Conditions	mass density [kg/m3]
333.15 K	983.2
343.15 K	977.8
353.15 K	971.8

NCCO + CCCCn1cc[n+](C)c1.F[B-](F)(F)F
mass density [kg/m3], 100 kPa
Conditions	x2 = 0	x2 = 0.0999	x2 = 0.2001	x2 = 0.2994	x2 = 0.4004	x2 = 0.4999	x2 = 0.5994	x2 = 0.7005	x2 = 0.7992	x2 = 0.9002
293.15 K	–	–	1096.4	1122.2	1141.9	–	1169	–	1188.1	1196.5
298.15 K	1013	1060.8	1092.4	–	–	1152.6	–	–	1184.1	1192.9
303.15 K	1009.7	–	1088.5	1114.5	1134.3	1148.7	–	1171.5	1180.2	1189.2
313.15 K	1002.5	–	–	1106.7	1126.6	1141	1153.4	1163.9	1172.7	1182
323.15 K	994.8	–	1072.8	1098.9	1119.1	–	–	1156.3	1165.2	1174.9
333.15 K	986.8	–	1064.9	1091.2	1111.6	1126.2	–	1148.8	1158	–
343.15 K	978.6	–	1057	1083.6	1104	1118.8	1131	1141.4	1150.5	1160.8
353.15 K	970.4	1017.2	1049.1	1075.9	1096.7	1111.5	1123.6	1134.2	–	–

O + CCCCn1cc[n+](C)c1.F[B-](F)(F)F
100 kPa, x2 = 0
Conditions	mass density [kg/m3]
333.15 K	983.2
343.15 K	977.8

CCCC[n+]1ccn(C)c1.F[B-](F)(F)F + NCCO
mass density [kg/m3], 101 kPa
Conditions	x2 = 0	x2 = 0.0998	x2 = 0.2008	x2 = 0.2995	x2 = 0.4006	x2 = 0.5001	x2 = 0.5996	x2 = 0.7006	x2 = 0.7999	x2 = 0.9001
293.15 K	1204.2	1196.5	1188.1	–	1169	–	1141.9	1122.3	1096.4	–
298.15 K	1200.6	1192.9	1184.1	1175.5	1165	1152.6	1138.1	1118.4	–	1060.8
303.15 K	1197	–	1180.2	1171.5	1160.9	1148.7	–	1114.5	1088.5	–
313.15 K	1189.9	–	1172.7	1163.9	1153.4	1141	1126.6	1106.7	1080.6	–
323.15 K	1182.8	1174.9	1165.3	1156.3	–	1133.5	1119.1	1098.9	1072.8	–
333.15 K	1175.8	1167.9	1158	1148.8	1138.4	1126.2	1111.6	1091.2	1064.9	–
343.15 K	1168.9	1160.9	1150.5	1141.4	1131	1118.8	1104	1083.6	1057	1025.2
353.15 K	1162	–	1143.2	–	–	1111.5	–	1075.9	–	–

CCCCn1cc[n+](C)c1.F[B-](F)(F)F + NCCO
100 kPa, x1 = 1
Conditions	mass density [kg/m3]
298.15 K	1200.6
303.15 K	1197
313.15 K	1189.9
323.15 K	1182.8
333.15 K	1175.8
343.15 K	1168.9
353.15 K	1162

CCCC[n+]1ccn(C)c1.F[B-](F)(F)F + O
101 kPa
Conditions	mass density [kg/m3]
293.15 K, x2 = 0.1012	1201.3
293.15 K, x2 = 0.8	1141
298.15 K, x2 = 0.9	1100.4
313.15 K, x2 = 0	1189.9
313.15 K, x2 = 0.5984	1158.5
313.15 K, x2 = 0.705	1145.1
323.15 K, x2 = 0.1012	1179.9
323.15 K, x2 = 0.4037	1166.2
323.15 K, x2 = 0.5984	1151.5
323.15 K, x2 = 0.705	1137.9
333.15 K, x2 = 0	1175.8
333.15 K, x2 = 0.3003	1164.6
333.15 K, x2 = 0.705	1130.8
343.15 K, x2 = 0	1168.9
343.15 K, x2 = 0.3003	1157.6
343.15 K, x2 = 0.4998	1145.8
343.15 K, x2 = 0.8	1105.1
343.15 K, x2 = 0.9	1068.7
353.15 K, x2 = 0	1162
353.15 K, x2 = 0.1012	1159
353.15 K, x2 = 0.1986	1155.3
353.15 K, x2 = 0.4037	1145
353.15 K, x2 = 0.4998	1138.7
353.15 K, x2 = 0.5984	1130.2
353.15 K, x2 = 0.8	1097.9
353.15 K, x2 = 0.9	1061.4

CCCCn1cc[n+](C)c1.F[B-](F)(F)F + O
100 kPa
Conditions	mass density [kg/m3]
293.15 K, x1 = 0.2	1140.9
293.15 K, x1 = 0.295	1159.6
293.15 K, x1 = 0.8988	1201.3
303.15 K, x1 = 0.2	1135.4
303.15 K, x1 = 0.4016	1167.4
303.15 K, x1 = 0.6997	1187.9
303.15 K, x1 = 0.8988	1195.9
303.15 K, x1 = 1	1198.8
313.15 K, x1 = 0.1	1090.6
313.15 K, x1 = 0.295	1145.1
313.15 K, x1 = 0.4016	1158.5
313.15 K, x1 = 0.8988	1187
313.15 K, x1 = 1	1189.9
323.15 K, x1 = 0.4016	1151.5
323.15 K, x1 = 0.5963	1166.2
323.15 K, x1 = 0.8988	1179.9
323.15 K, x1 = 1	1182.8
333.15 K, x1 = 0.295	1130.8
333.15 K, x1 = 0.6997	1164.6
343.15 K, x1 = 0.1	1068.7
343.15 K, x1 = 0.2	1105.1
343.15 K, x1 = 0.5002	1145.8
343.15 K, x1 = 0.6997	1157.6
343.15 K, x1 = 0.8014	1162.3
343.15 K, x1 = 1	1168.9
353.15 K, x1 = 0.1	1061.4
353.15 K, x1 = 0.295	1116.8
353.15 K, x1 = 0.4016	1130.2
353.15 K, x1 = 0.5002	1138.7
353.15 K, x1 = 0.5963	1145
353.15 K, x1 = 0.6997	1150.5
353.15 K, x1 = 0.8014	1155.3
353.15 K, x1 = 0.8988	1159
353.15 K, x1 = 1	1162

From a compilation of properties of binary mixtures (doi:10.1021/je2007204)
